Measured values as given in US20190062448A1, “ANTI-CD39 ANTIBODIES, COMPOSITIONS COMPRISING ANTI-CD39 ANTIBODIES AND METHODS OF USING ANTI-CD39 ANTIBODIES” (Tizona Therapeutics, priority 2017, published 2019).

T1: CD39 on MEL-28 cells (Homo sapiens, UniProt P49961)
T1 construct: endogenous in cells; host or cells: MEL-28
T1 sequence (P49961 1-510): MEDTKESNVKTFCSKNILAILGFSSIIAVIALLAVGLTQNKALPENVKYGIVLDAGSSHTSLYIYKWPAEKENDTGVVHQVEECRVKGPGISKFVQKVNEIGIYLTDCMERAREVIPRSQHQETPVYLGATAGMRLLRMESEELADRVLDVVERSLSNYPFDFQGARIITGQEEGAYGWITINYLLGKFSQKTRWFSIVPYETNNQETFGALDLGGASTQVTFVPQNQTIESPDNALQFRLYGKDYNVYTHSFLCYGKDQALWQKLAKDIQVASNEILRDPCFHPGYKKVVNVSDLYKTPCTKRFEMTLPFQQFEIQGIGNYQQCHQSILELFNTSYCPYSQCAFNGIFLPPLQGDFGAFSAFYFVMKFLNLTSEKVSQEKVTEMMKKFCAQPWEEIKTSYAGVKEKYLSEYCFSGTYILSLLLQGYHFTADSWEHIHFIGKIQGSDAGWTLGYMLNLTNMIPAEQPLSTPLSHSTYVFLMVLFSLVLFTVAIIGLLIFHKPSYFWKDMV

T2: CD39 on primary human monocytes (Homo sapiens, UniProt P49961)
T2 construct: Human monocytes were purified from leukopak using EasySep Human monocytes isolation kit; endogenous in cells; host or cells: primary human monocytes from leukopak
T2 sequence (P49961 1-510): T1 sequence (P49961 1-510)

T3: CD39 expressed on MEL-28 cells (Homo sapiens, UniProt P49961)
T3 construct: endogenous in cells; host or cells: MEL-28
T3 sequence (P49961 1-510): T1 sequence (P49961 1-510)

T4: hCD39-ECD (Homo sapiens, UniProt P49961)
T4 sequence (P49961 38-478 limits assumed): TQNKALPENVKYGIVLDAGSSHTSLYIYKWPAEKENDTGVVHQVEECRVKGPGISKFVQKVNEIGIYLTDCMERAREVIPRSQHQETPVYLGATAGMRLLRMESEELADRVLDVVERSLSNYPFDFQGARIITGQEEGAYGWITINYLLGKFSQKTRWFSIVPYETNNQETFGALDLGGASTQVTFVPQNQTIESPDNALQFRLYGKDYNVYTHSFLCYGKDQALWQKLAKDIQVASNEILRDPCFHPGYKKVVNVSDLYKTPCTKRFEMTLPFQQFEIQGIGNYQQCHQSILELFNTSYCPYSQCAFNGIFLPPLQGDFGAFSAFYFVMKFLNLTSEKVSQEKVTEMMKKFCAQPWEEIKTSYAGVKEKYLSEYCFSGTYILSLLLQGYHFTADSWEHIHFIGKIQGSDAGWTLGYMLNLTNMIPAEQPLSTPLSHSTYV

T5: recombinant human CD39 extracellular domain (rhCD39-ECD-His) (Homo sapiens, UniProt P49961)
T5 construct: His (C); purchased R&D Systems
T5 sequence (P49961 38-478 limits assumed): T4 sequence (P49961 38-478 limits assumed)

T6: human CD39 on CHO CD39 cells (Homo sapiens, UniProt P49961)
T6 construct: expressed in transfected cells; host or cells: Chinese Hamster Ovary K1 (CHO)
T6 sequence (P49961 1-510): T1 sequence (P49961 1-510)

T7: CD39 expressed on OAW42 (Homo sapiens, UniProt P49961)
T7 construct: endogenous in cells; host or cells: OAW42
T7 sequence (P49961 1-510): T1 sequence (P49961 1-510)

B1: 28347: anti-human CD39 antibody inhibiting soluble ECD and cellular CD39 (antibody, V domains shown)
VH: QVQLVQSGAEVKKPGSSVKVSCKASGGTFSSLAISWVRQAPGQGLEWMGGIIPIFGTANYAQKFQGRVTITADESTNTAYMELSSLRSEDTAVYYCARGGAKYASTYGMDVWGQGTTVTVSS
VL: DIVMTQSPDSLAVSLGERATINCKSSQSVLFSSNNKNYLAWYQQKPGQPPKLLIYWASTRESGVPDRFSGSGSGTDFTLTISSLQAEDVAVYYCQQYYLYPLTFGGGTKVEIK
modifications: Synthetic VH, 28347; Synthetic VL, 28347
B2: 27536: anti-hCD39 antibody binding ECD and cellular CD39, inhibits ATPase; own bin group with 28337 (antibody, V domains shown)
VH: QVQLVQSGAEVKKPGSSVKVSCKASGGTFSNYAISWVRQAPGQGLEWMGGIIPIFGTANYAQKFQGRVTITADESTSTAYMELSSLRSEDTAVYYCARDTLYSSGAYYGYNVWGQGTMVTVSS
VL: B1 VL with F31Y, Y97A, L99T, Y100F, L102P
modifications: Synthetic VH, 27536; Synthetic VL, 27536

Columns and labels:
CD39 on MEL-28 cells = target: T1, CD39 on MEL-28 cells; assay: Short term ATPase assay on MEL-28 cells (Malachite Green phosphate readout); type: cell-based; settings: Example 14; 100 nM down to 0.32 pM; 50 μM ATP
Method: FIGS. 4 A-B provide evaluation of antibody driven inhibition of ATP hydrolysis of CD39 on MEL-28 cells in a short term ATP assay. […] Inhibition is determined by decreased phosphate release (Pi). Data is representative of at least 10 independent experiments. Anti-CD39 antibodies (each antibody clone number is indicated in the figure) were titrated from 15 to 0.001 μg/ml. […] Three independent experiments were performed.
FIGS. 13 A-B show evaluation of antibodies for inhibition of CD39 activity on MEL-28 (FIG. 13A) and human monocytes (FIG. 13B) as compared to the anti-CD39 antibodies generated based on Innate/Orega (BY-40v9) and Igenica (9-8B) and variants thereof. […] Phosphate release by CD39 processing of ATP was quantified using Malachite Green assay.
3.5×10^4 MEL-28 cells/well were washed with Tris buffer and incubated with serially diluted (100-0.00013 nM) antibody for 30 minutes at 37 degrees C. […] The supernatants were collected and analyzed in Malachite Green Assay (R&D) according to manufacturer's protocol. Phosphate released from CD39 processing of ATP was used as a readout of enzyme activity. […]
(§1) 3.5×10^4 MEL-28 cells/well were incubated with 100 nM down to 0.32 pM of monoclonal antibodies for 30 minutes. […] Supernate was evaluated for free phosphate (Pi) using the Malachite Green Phosphate Detection Kit (R&D Systems cat#DY996). […]

[1] = target: T2, CD39 on primary human monocytes; assay: Inhibition of ATPase activity on human monocytes (Malachite Green); type: cell-based; settings: Example 14
Method: FIG. 9 provides evaluation of inhibition of CD39 activity on primary human (a) and cyno (b) monocytes. Anti-CD39 antibodies (each number represents a unique antibody clone number as indicated in the figure) were titrated from 100 to 0.00013 nM and incubated with monocytes in presence of ATP. Phosphate release by CD39 processing of ATP was quantified using Malachite Green assay.
FIGS. 13 A-B show evaluation of antibodies for inhibition of CD39 activity on MEL-28 (FIG. 13A) and human monocytes (FIG. 13B) as compared to the anti-CD39 antibodies generated based on Innate/Orega (BY-40v9) and Igenica (9-8B) and variants thereof. Anti-CD39 antibodies were titrated as indicated and incubated in presence of ATP. Phosphate release by CD39 processing of ATP was quantified using Malachite Green assay.
Human monocytes were purified from leukopak using EasySep Human monocytes isolation kit ([…]). Cyno monocytes were isolated from whole cyno blood using NHP CD14 positive selection kit (Miltenyi). […] 50 μM ATP was added to the cells for 15 minutes at 37 C and supernatants were harvested and analyzed in Malachite Green Assay (R&D) for phosphate levels. […]
as §1

[2] = target: T3, CD39 expressed on MEL-28 cells; assay: Cellular CD39 ATPase inhibition (Malachite Green), Example 15; type: cell-based; settings: 10-25 μg/ml antibody; 50 μM ATP; vs isotype control
Method: (§2) Indicated cells were incubated in assay buffer with 10-25 μg/ml antibody, 100 μM POM-1 or 100 μM ARL for 30 min at 37° C. 5% CO2. ATP was added to a final concentration of 50 μM and the incubation continued for 15 min. Supernatant was evaluated for free phosphate (Pi) using the Malachite Green Phosphate Detection kit. Palivizumab is used as an isotype control and POM-1 and ARL are non-specific small molecule inhibitors of CD39.
(§3) Also, an 18 hour incubation was used with the antibody or isotype control. Finally, an additional 30 second baseline dip in buffer between antigen capture and dipping into a second competitor antibody for 300 seconds was used.

hCD39-ECD [3] = target: T4, hCD39-ECD; assay: Epitope binning / competition for hCD39-ECD binding by Bio-Layer Interferometry; settings: for competition with antibody A1 for binding to hCD39 ECD: A1 immobilized, ECD captured, then competitor antibody
From the text: A1 antibody was immobilized onto an Anti-Mouse IgG Fc Capture (AMC) biosensor (ForteBio). Association of hCD39-ECD was then monitored for 180 seconds via Bio-Layer Interferometry (BLI) using the Octet system (ForteBio), at which point the biosensor was dipped into competitor antibody and monitored for another 180 seconds.
The methods are the same as set forth above except that instead of A1, the representative antibody was immobilized using anti-human IgG Fc Capture (AHC) biosensor.
as §3

hCD39-ECD [4] = target: T4, hCD39-ECD; assay: rhCD39-ECD ATPase inhibition (Malachite Green free phosphate); type: biochemical; design: purchased R&D Systems; settings: 50 μg/ml antibody; 10 μM ATP; vs isotype or buffer controls
Method: 0.04-3.3 nM rhCD39-ECD (R&D Systems) was incubated with buffer, 50 μg/ml antibody or 100 μM POM-1 (Alpha Aesar) for 1 hr at 37° C. in assay buffer (25 mM Tris pH 7.5, 5 mM CaCl2) at which point ATP (Sigma) was spiked in to a final concentration of 10 μM, and the reaction further incubated for 30 min 37° C. Production of free phosphate (Pi) was subsequently measured using Malachite Green Phosphate Detection kit (R&D Systems).
as §3

[5] = target: T5, recombinant human CD39 extracellular domain (rhCD39-ECD-His); assay: Binding kinetics to recombinant CD39 ECD by biolayer interferometry (Octet)
From the text: FIG. 1 provides a table showing monovalent affinity of anti-huCD39 antibodies to recombinant human CD39 extracellular domain. The table provides binding kinetics of anti-CD39 antibodies interacting with soluble recombinant human CD39 (ENTDP1) extracellular domain (ECD) by biolayer interferometry (ForteBio Octet). Anti-CD39 antibodies were captured on an anti-human Fc sensor and exposed to recombinant human CD39 ECD at concentration ranging from 10-300 nanomolar. The kinetic data was globally fit with a simple 1:1 Langmuir binding model to yield on-rate (kon) and off-rate (koff) values. The equilibrium dissociation constants (KD) were calculated from the kon and koff values.
Binding kinetics were measured using the Octet Red96 system (ForteBio) at 25° C. in running buffer (1× Pall ForteBio Kinetics Buffer diluted into PBS or Tris pH 7.4). In brief, 1.25 mg/ml of unlabeled anti-hCD39 antibodies were immobilized onto anti-human Fc sensors. After a short baseline step in running buffer, the sensors were exposed to varying concentrations (10-300 nM) of rhCD39-ECD-His (R&D Systems) for the association step. Dissociation of the complex was monitored upon exposure of the sensors to running buffer once again. […] KD was calculated from the ratio of kd to ka.
PF=poor fit. […] The equilibrium dissociation constants (KD) were calculated from the kon and koff values.

[6] = target: T6, human CD39 on CHO CD39 cells; assay: Binding to CHO cells expressing human CD39 (flow cytometry)
Method: Binding of anti-CD39 IgGs to Chinese Hamster Ovary K1 (CHO) CD39 cells. 100 nanomolar IgGs (each antibody is indicated as a unique clone number in the FIG.) were incubated at 25° C. for 30 minutes on ice in phosphate buffered saline (PBS) with parental CHO cells or CHO cells engineered to express either human or cynomolgus macaque (Macaca fascicularis) CD39 (CHO CD39 cells). Cells were then washed with ice cold PBS and incubated with a fluorescently labeled goat-anti-human IgG for 20 minutes on ice. Cells were washed and resuspended in ice cold PBS prior to analysis by flow cytrometry. Fold over background binding levels represent the ratio of median fluorescence intensity (MFI) values for anti-CD39 antibodies binding to CHO CD39 to MFI values for anti-CD39 antibodies binding to the parental CHO cells.

CD39 expressed on OAW42 = target: T7, CD39 expressed on OAW42; assay: Cellular CD39 ATPase inhibition (Malachite Green), Example 15; type: cell-based; settings: 10-25 μg/ml antibody; 50 μM ATP; vs isotype control
Method: as §2

| Molecule | enzymatic inhibition (free phosphate release) on MEL-28 cell, short term assay (CD39 on MEL-28 cells) | enzymatic inhibition (free phosphate release) on primary human monocyte, short term assay [1] | inhibition of ATPase activity of CD39 expressed on MEL-28 cells [2] | competition / binning with other anti-CD39 antibody bin groups for ECD binding (hCD39-ECD [3]) | competition with antibody A1 for binding to hCD39 ECD (hCD39-ECD [3]) | inhibition of ATPase activity of soluble hCD39 ECD (μM Pi) (hCD39-ECD [4]) | binding to soluble recombinant human CD39 ECD (in words) [5] | binding to cellular human CD39 (in words) [6] | inhibition of ATPase activity of CD39 expressed on OAW42 cells (CD39 expressed on OAW42) |
| --- | --- | --- | --- | --- | --- | --- | --- | --- | --- |
| B1 | able to inhibit ATPase activity at low nM concentrations | able to inhibit ATPase activity at low nM concentrations | inhibit the hydrolysis of CD39 expressed on MEL-28 cells | do not compete | do not compete | able to inhibit the hydrolysis of ATP by hCD39 ECD |  |  |  |
| B2 |  |  | inhibit the hydrolysis of CD39 expressed on MEL-28 and OAW42 cells | do not compete with other inhibitors for CD39 binding | does not block binding | able to inhibit the hydrolysis of ATP by hCD39 ECD | bind both soluble ECD and cellular CD39 | bind both soluble ECD and cellular CD39 | inhibit the hydrolysis of CD39 expressed on MEL-28 and OAW42 cells |

Changes are numbered by the printed parent chain.
